In PubChem BioAssay AID1159614 (National Center for Advancing Translational Sciences (NCATS), 2016):
Screen size: about 45,000 compounds; about 65 (0.1%) were called active. Calls come from the whole dose curve; as a rule, active = well fitted activation curve with a large enough effect; inconclusive = small, poorly fitted or top-dose-only effect; inactive = no such curve, though single readings can be large or run the other way. Some of the results follow.

Target: Galactocerebrosidase (Homo sapiens) (UniProt P54803)
Assay: A Novel Cell-Based Assay to Identify Small Molecules for B -Galactocerebrosidase; note: 0% is about no effect; nearly all actives have a fitted effect of over 65% in size
Details: 145M-Twi-hGALC-G270D cells (Twitcher mouse brain line with human GALC G270D), HMU-beta-Gal fluorescence, 48 h; series mostly up to 57.5 µM; activation: at the top concentration
How it was run: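 Live 145M-Twi cells (Twitcher mouse brain-derived, GALC-null) stably expressing human GALC-G270D, with a wild-type GALC line, were compound-treated. Residual GALC activity was then read as fluorescence from 0.1 mM final HMU-β-gal at pH 5.2; higher signal means activation.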

UniProt P54803, sequence (P54803 whole entry, looked up): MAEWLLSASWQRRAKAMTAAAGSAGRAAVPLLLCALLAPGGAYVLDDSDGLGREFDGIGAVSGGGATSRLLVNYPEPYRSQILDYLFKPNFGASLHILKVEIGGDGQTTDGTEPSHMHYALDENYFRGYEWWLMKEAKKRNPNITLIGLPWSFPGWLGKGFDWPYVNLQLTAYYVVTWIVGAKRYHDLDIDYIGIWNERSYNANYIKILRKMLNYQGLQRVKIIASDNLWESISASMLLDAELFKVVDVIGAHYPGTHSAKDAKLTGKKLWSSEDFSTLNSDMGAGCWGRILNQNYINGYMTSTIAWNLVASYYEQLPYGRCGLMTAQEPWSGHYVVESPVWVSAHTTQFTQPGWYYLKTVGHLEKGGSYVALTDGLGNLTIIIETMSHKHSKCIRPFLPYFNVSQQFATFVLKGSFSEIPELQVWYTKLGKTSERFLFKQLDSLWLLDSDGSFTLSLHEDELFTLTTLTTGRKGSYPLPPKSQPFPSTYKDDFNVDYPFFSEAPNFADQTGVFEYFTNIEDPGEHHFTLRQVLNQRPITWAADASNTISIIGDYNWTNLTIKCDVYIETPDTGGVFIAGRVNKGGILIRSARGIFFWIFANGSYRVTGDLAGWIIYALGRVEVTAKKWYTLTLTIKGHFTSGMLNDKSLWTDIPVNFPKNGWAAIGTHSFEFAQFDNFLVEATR

activation, inactive:
CCc1ccc(OCC(=O)Nc2ccc3c(c2)c2ccccc2n3CC)c(Br)c1 -4.97%
N#C/C(=C\c1cc(Br)c(O)c(Br)c1)c1nc2ccccc2c(=O)[nH]1 -6.73%
CCOc1ccc(NC(=O)C(C)n2c(=O)cc(C)c3c(C)nn(-c4ccccc4)c32)cc1 (configuration not stated) -3.52%
COc1ccccc1O -10.4% [at 114 µM]
Cc1cccc(CSc2ccc(-c3cccs3)nn2)c1 -7.64%
O=C(NCc1ccccc1Cl)c1nnc(Cc2ccc(Cl)cc2)o1 -5.97%
COc1ccc(-c2nc(SCC(=O)NCCc3ccccc3)n[nH]2)cc1 -2.72%
COc1ccc(-c2noc(CSc3nnc(C)n3-c3ccc(C)c(C)c3)n2)c(OC)c1 -20.5%
COc1ccc(CC(=O)NC2CC(=O)N(c3ccc(C)c(C)c3)C2)cc1OC (configuration not stated) -4.76%
O=C(Cn1c(=O)oc2cc(S(=O)(=O)N3CCCCC3)ccc21)NCc1ccc(F)cc1 -41.4%
CC1CCN(c2nc3ccc(C(=O)NCCc4ccc(S(N)(=O)=O)cc4)cc3s2)CC1 -13.4%
CCc1ccc(NC(=O)CSc2ncc(S(=O)(=O)c3cc(C)ccc3C)c(=O)[nH]2)cc1 -1.6%
O=C(O)Cc1cn(-c2ccccc2)nc1-c1ccc(Cl)cc1 -10.8%
COC(=O)c1ccccc1NC(=O)C1CCCN(c2nnc(C)c3c(C)n(-c4ccccc4)nc23)C1 (configuration not stated) -14.3%
CCOC(=O)C(Cc1ccccc1)NC(=O)CCc1c(C)nc2c(c(C)nn2-c2ccc(C)c(C)c2)c1C (configuration not stated) -30.3%
O=NN(CCCl)C(=O)NC1CCCCC1 -14.8%
COC(=O)c1c(NC(=O)c2ccc(S(=O)(=O)N(C)C3CCCCC3)cc2)sc2c1CCN(C)C2 -24.1%
O=C(CN1C(=O)CCc2cc(S(=O)(=O)N3CCCCC3)ccc21)NCc1ccc(Cl)cc1 -3.3%
Cc1cccc2sc(N(Cc3cccnc3)C(=O)C3COc4ccccc4O3)nc12 (configuration not stated) -20.5%
COc1ccc(-c2nc(Cn3c(SCc4ccccc4F)nc4cccnc43)c(C)o2)cc1 -11.7%
Cc1ccc(CNC(=O)CN2C(=O)C3(SCC(=O)N3c3ccc(F)c(F)c3)c3ccccc32)cc1 (configuration not stated) -19.1%
Cc1cc(NC(=O)c2cnc3c(-c4ccccc4)c(C)nn3c2C)ccc1Br -11.6%
Cc1cc(NC(=O)C(C)(C)C)cc(-c2nc3ncccc3o2)c1O -6.73%
Cc1cccc(N2CCN(C(=O)CN3C(=O)COc4ccc(S(=O)(=O)N5CCCC5)cc43)CC2C)c1 (configuration not stated) 6.57%
Cc1ccc(C)c(N2CCN(C(=O)CS(=O)(=O)c3cccc4nsnc34)CC2)c1 -36.8%
COc1ccc(OCC(=O)NCC(c2ccc(OC)cc2)N2CCOCC2)cc1 (configuration not stated) 2.49%
Cc1ccc(CNC(=O)c2ccccc2NC(=O)c2nsc3ccccc23)cc1 -18.3%
COc1cccc(CNCCSc2nnnn2-c2ccccc2)c1OC -15.9%
COc1ccc(-c2c(C)c3ccc(O)c(CN4CCCC4)c3oc2=O)cc1 -16.2%
CCn1c(SCC(=O)c2ccccc2)nnc1-c1cccc(Cl)c1 -9.36%
CCc1c(CN2CCN(c3ccccc3F)CC2)csc1C -11.1%
O=C(Cn1c(-c2cccs2)cc2cc(F)ccc21)NCCCN1CCN(c2ccc(F)cc2)CC1 -11%
Cc1ccc(/C=C/c2onc(C)c2S(=O)(=O)N2CCC(C(=O)NCc3ccc(OC(C)C)cc3)CC2)cc1 -8.66%
Cc1ccc(-c2nc(CS(=O)CC(=O)NCCc3ccc(Cl)cc3)c(C)o2)cc1 (configuration not stated) -13.6%
CC(CNC(=O)CCCn1c(=O)c2cccn2c2ccc(F)cc21)c1ccccc1 (configuration not stated) -11.9%
Cc1cccc(C(=O)NNc2ncnc3c2cnn3-c2ccc(C)c(Cl)c2)c1 -22.5%
COc1cc(NC(=O)C2Cc3ccccc3N2C(=O)c2ccccc2)cc(OC)c1 (configuration not stated) -8.77%
O=C(O)CCC(=O)Nc1ccc(S(=O)(=O)Nc2nccs2)cc1 -5.4%
COc1ccc(N2CCN(c3ncnc4c3nnn4C)CC2)cc1 -1.22%
COC(=O)c1cc2sccc2n1CC(=O)Nc1cc(Cl)ccc1OC -5.55%
COc1ccc(OCCn2nnc3sc4c(c3c2=O)CCCC4)cc1 -13.2%
CCOc1ccc(-n2nc(CO)c(C(=O)NCC(C)O)n2)cc1 (configuration not stated) 1.99%
N#Cc1c(C(F)(F)F)cc(-c2cccs2)nc1SCc1ccccc1F -12.1%
Clc1ccccc1CSc1nc(NCCc2ccccc2)c2ccccc2n1 2.08%
CCOc1ccccc1Oc1nc(C)nc2c1oc1ccccc12 -15.4%
COc1cnc(NS(=O)(=O)c2ccc(N)cc2)nc1 -9.7%
CCOC(=O)c1c(C)[nH]c(C)c1S(=O)(=O)NCC(=O)NCc1ccccc1C -10.1%
CCOc1ccccc1CNS(=O)(=O)c1cc(-c2onc(C)c2C)ccc1OC 2.59%
CCOC(=O)C1CCN(c2ncnc3c2c(-c2ccccc2)cn3-c2ccc(Cl)cc2)CC1 -5.01%
CCC(=O)N1c2ccccc2CC1C(=O)N1CCN(c2ccccc2F)CC1 (configuration not stated) -12.9%
Cc1ccc(NC(=O)Cn2c(=O)n(CCCCC(=O)NCc3ccc4c(c3)OCO4)c(=O)c3ccccc32)cc1 11.7%
Cc1cccc(N2CCN(C(=O)c3ccc4c(c3)N(Cc3cccc(Cl)c3)C(=O)c3ccccc3S4(=O)=O)CC2)c1C -9.19%
CCN(Cc1ccccc1)C(=O)Cn1ncc2c(=O)oc3ccc(C)cc3c21 -17%
CCOc1ccc(NC(=O)CCc2nnc3n(C)c(=O)c4sccc4n23)cc1 4.08%
O=C(CSc1ncc2c(n1)-c1ccccc1N(Cc1ccc(Cl)cc1)S2(=O)=O)c1ccccc1 -10.4%
O=C(O)CCn1c2c(c3ccccc31)C[C@H](NS(=O)(=O)c1ccc(F)cc1)CC2 -25.1%
CCOc1ccccc1Nc1sc(C(=O)c2ccc(Cl)cc2)c(N)c1S(=O)(=O)c1ccccc1 -9.42%
CC(CNC(=O)C1CCN(C(=O)c2cc3sccc3n2C)CC1)c1ccccc1 (configuration not stated) -7.31%
CCOc1ccc(CNCc2c(C(=O)O)n(Cc3ccccc3C)c3cc(OC)ccc23)cc1OC -20.4%
Cc1ccc(S(=O)(=O)C(CNS(=O)(=O)c2ccc(F)c(C(F)(F)F)c2)c2ccco2)cc1 (configuration not stated) -8.12%
COc1ccccc1NC(=O)Cn1ccn(-c2cc(C)cc(C)c2)c(=O)c1=O -16.9%
CCC(C(=O)NC1CCCCC1)n1c(SCc2cccc(F)c2)nc2ccncc21 (configuration not stated) -46.4%
Cc1cccc(CN2CCN(C(c3ccccc3)c3ccc(Cl)cc3)CC2)c1 (configuration not stated) -17.4%
Cc1ccc(Cl)cc1N1CCN(C(=O)CCS(=O)(=O)c2ccc3c(c2)oc(=O)n3C)CC1 -10.4%
CCOc1cccc(NC(=O)C2CC(=O)N(C)C(=Nc3ccc(OC)cc3)S2)c1 (configuration not stated) -14.2%
Cn1nc(C(=O)NCc2ccccc2)c2c1-c1ccccc1S(=O)(=O)C2 -13.7%
Cc1ccc(Cl)cc1Nc1nn2c(=O)c3ccc(C(=O)NC(C)c4ccccc4)cc3nc2s1 (configuration not stated) -4.17%
O=C(C1CCCCC1)N1CC(=O)N2CCCc3ccccc3C2C1 (configuration not stated) -27.5%
CCOc1ccc(-c2nc3cc(NC(=O)COc4cccc(C)c4)ccc3o2)cc1 -9.63%
CN(C(=O)CSc1nc2ccccc2n1Cc1ccccc1C#N)c1ccccc1 -43.2%
O=c1c2sc3ccccc3c2n(Cc2ccc(F)cc2Cl)c(=O)n1Cc1ccccc1 3.08%
CCOc1ccccc1CNC(=O)c1oc2ccc3c(c2c1C)C(=O)CC(C)(C)O3 -7.95%
Cc1ccc(S(=O)(=O)C(CNC(=O)C(=O)NCc2ccc(Cl)cc2)c2ccco2)cc1 (configuration not stated) -8.06%
CCOc1ccc(-n2c(=O)c3c(C)c(C(=O)N(C)C)sc3n(Cc3cc(C)ccc3C)c2=O)cc1 -3.18%
CCOC(=O)c1ccc(-c2ccc(/C=C(\C#N)C(=O)Nc3ccc(C)cc3)o2)cc1 -11.5%
COc1cc(CN(C(=O)c2ccc(Cl)cc2)C2CCS(=O)(=O)C2)cc(OC)c1OC (configuration not stated) -6.31%
CCOc1ccc(S(=O)(=O)N(CC(=O)Nc2ccc3c(c2)OCO3)c2ccc(C)cc2)cc1 -12.1%
Cc1ccc2oc(-c3ccc(C)c(NC(=O)c4ccc(-c5ccccc5[N+](=O)[O-])o4)c3)nc2c1 -14.1%
COCC(=O)Nc1c(C(=O)Nc2ccc(C)cc2)oc2ccccc12 -2.3%
CCCCCCCCCCCCCC[N+](C)(C)Cc1ccccc1 -10.8%
COC(=O)c1ccc2nc(C)cc(Nc3cccc(Cl)c3C)c2c1 -8.01%
Cc1ccc(CNC(=O)CN2C(=O)CCc3cc(S(=O)(=O)N4CCCCC4)ccc32)cc1 27.8%
CCN(CC)S(=O)(=O)c1ccc(N2CCCCS2(=O)=O)cc1 -15%
Cc1ccc2onc(CNC(=O)N3CCN(c4cccc(C(F)(F)F)c4)CC3)c2c1 -20.5%
CCn1cc(S(=O)(=O)c2ccc(Cl)cc2)c(=O)c2cc(F)c(N3CCOCC3)cc21 -16.4%
Oc1ccc(-c2nc3ccc(Cl)cn3c2Nc2ccc3c(c2)OCO3)cc1 -17%
Cc1ccc(-n2c(=O)c3c(C)c(C)sc3n(Cc3ccc(F)cc3Cl)c2=O)cc1C -17.2%
COc1ccc(CCNC(=O)Cc2c(C)c3cc4c(C)coc4cc3oc2=O)cc1OC -6.19%
O=C(NCc1ccc(Cl)cc1)C1CCN(S(=O)(=O)c2ccccc2)CC1 -10.5%
COc1ccc(N(C(=O)c2ccccc2)S(=O)(=O)c2ccc3c(c2)n(C)c(=O)n3C)cc1 -15.7%
O=C1CC(=O)Nc2cc(S(=O)(=O)N3CCOc4ccc(Cl)cc43)ccc2N1 -4.74%
Cc1cc(C)c(NS(=O)(=O)c2ccc(-c3coc(C)n3)cc2)c(C)c1 -6.24%
COc1cc(C(=O)NCc2nc3cccnc3n2Cc2ccc(C)cc2)cc(OC)c1OC -12.3%
CC(=O)c1ccc(NC(=O)Cn2ncc3c4ccccc4n(Cc4ccccc4)c3c2=O)cc1 -8.41%
O=C(Cn1c(=O)n2nc(-c3cccc(F)c3)nc2c2ccccc21)N1CCN(c2ccc(F)cc2)CC1 -19%
Cn1c(=O)c2c(ncn2Cc2ccc(Cl)cc2)n(C)c1=O -5.22%
CCN1CCN(C(c2ccccc2Cl)c2c(O)cc(C)n(Cc3ccco3)c2=O)CC1 (configuration not stated) -19.1%
